Assay results reported in PubChem BioAssay AID1745853 (National Center for Advancing Translational Sciences (NCATS), 2022).
This is one part of the list. These are further read-outs of the screen, such as a control signal, another cell line or another target. No call is given for them.

Key:
Test in all cases: Primary Screen for Target Class Profiling of Small Molecule Inhibitors of Methyltransferases
[1] = target: Glycine N-methyltransferase (Homo sapiens) (UniProt Q14749); conditions: purified enzyme, MTase-Glo SAH luminescence; measured here: GNMT inhibition; at 40 µM; stronger effect = lower value
Outline: (§1)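 Each enzyme was reacted with SAM and its substrate, with compounds tested once at 40 uM; SAH formed was read by MTase-Glo luminescence.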

[2] = target: Guanidinoacetate N-methyltransferase (Homo sapiens) (UniProt Q14353); conditions: purified enzyme, MTase-Glo SAH luminescence; measured here: GAMT inhibition; at 40 µM; stronger effect = lower value
Outline: as §1

[3] = target: Histamine N-methyltransferase (Homo sapiens) (UniProt P50135); conditions: purified enzyme, MTase-Glo SAH luminescence; measured here: HNMT inhibition; at 40 µM; stronger effect = lower value
Outline: as §1

[4] = target: Nicotinamide N-methyltransferase (Homo sapiens) (UniProt P40261); conditions: purified enzyme, MTase-Glo SAH luminescence; measured here: NNMT inhibition; at 40 µM; stronger effect = lower value
Outline: as §1

[5] = target: Phenylethanolamine N-methyltransferase (Homo sapiens) (UniProt P11086); conditions: purified enzyme, MTase-Glo SAH luminescence; measured here: PNMT inhibition; at 40 µM; stronger effect = lower value
Outline: as §1
% is scaled to controls: 0 for no effect and ±100 for the full control effect.

| SMILES | activity change, negative = inhibition [1] [%] | activity change, negative = inhibition [2] [%] | activity change, negative = inhibition [3] [%] | activity change, negative = inhibition [4] [%] | activity change, negative = inhibition [5] [%] |
| --- | --- | --- | --- | --- | --- |
| COc1ccccc1-c1cccc(CN2CCC(NC(C)=O)CC2)c1 | -7.28 | -11.3 | -5.36 | -19.8 | -23 |
| COc1ccc2cc3n(c2c1)CC(C)(C(=O)NC1CCCCC1)N(CCN1CCCC1)C3=O (stereo not given) | -1.79 | -0.429 | -3.86 | -5.05 | -2.79 |
| CC1(C(=O)NC2CCCCCCC2)Cn2c(ccc2-c2ccccc2)C(=O)N1Cc1ccco1 (stereo not given) | -4.3 | 0.816 | -7.93 | -18.4 | -7.14 |
| CC(C)Cn1c(=O)c2ccc(C(=O)NC3CCCCC3)cc2n2c(=O)n(Cc3ccccc3F)nc12 | 3.67 | 0.13 | 3.31 | 2.15 | 4.63 |
| COc1ccccc1CNC(=O)C1c2c(n(C)c3ccccc23)SCC(=O)N1c1ccc(C)cc1Cl (stereo not given) | 7.15 | 1.74 | -1.49 | -3.32 | 1.08 |
| COc1cccc(CC(=O)N2CCC(CC3CC3)(NC(=O)c3ccccc3)CC2)c1 | -3.39 | -3.61 | -0.721 | -3.38 | 3.96 |
| CN(C)C(=O)NC1(c2ccccc2)CCN(CCC[C@]2(c3ccc(Cl)c(Cl)c3)CCCN(C(=O)c3ccccc3)C2)CC1 | -3.26 | 4.83 | -7.48 | -39.9 | -4.98 |
| CC(C)CCNC(=O)C1c2c(n(C)c3ccccc23)SCC(=O)N1c1ccc(F)cc1 (stereo not given) | 7.39 | 2.39 | 1.84 | 2.38 | 5.73 |
| Cc1cc(S(=O)(=O)N2CCN(C3CCN(Cc4ccccn4)C3=O)CC2)ccc1Cl (stereo not given) | -4.07 | -4.44 | -4.12 | -8.8 | -6.83 |
| COc1ccc(C(=O)Cn2nc3n(Cc4ccc(F)cc4)c(=O)c4ccccc4n3c2=O)cc1OC | 6.19 | 0 | 12.5 | 5.3 | 8.27 |
| CCOC(=O)c1cc2n(n1)CC(C)(C(=O)NCc1ccc(C)cc1)N(c1ccccc1CC)C2=O (stereo not given) | 3.87 | 1.06 | 4.79 | 6.97 | 4.58 |
| O=C([C@@H]1C[C@H](F)CN1C(=O)c1ccc(Cl)cc1)N1CCCCC1 | -3.09 | -1.32 | -0.591 | -1 | -2.48 |
| Cc1ccc(-c2noc(CCCC(=O)N3CCC(CCOc4ccccc4F)C3)n2)cc1 (stereo not given) | -4.51 | -6.87 | -5.36 | -17 | -10.1 |
| CC(=O)N1CC2(CCN(C3CCCCC3)CC2)Cc2ccccc21 | -6.02 | -5.83 | -19.7 | -8.87 | -10.1 |
| Cc1ccccc1CN1C(=O)c2cc3ccccc3n2CC1(C)C(=O)NCc1ccccc1 (stereo not given) | -2.85 | 3.99 | -2.34 | -5.37 | -4.13 |
